Measurements taken from the supplement of paper PMC4967469.
By IC50 is meant the dose at which the fit gives 50% viability; a fit beyond the top or the lowest dose is shown as a bound at that dose. AUC is the area under the same curve over the 256-fold range up to the top dose, as a fraction; the more sensitive the line, the further below 1. For some of these results: Any top dose called inferred comes from the curve model; the source does not state it.

How the values were obtained:
Assay in all cases: Viability of human cancer cell lines after 72 h of drug (GDSC screen)
[1] = compound: Cn1nnc2c(C(N)=O)ncn2c1=O [Temozolomide]; conditions: top dose 30 µM
Description: (§1)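 Human cancer cell lines in 384-well plates, medium with 10% serum, drug for 72 h over a 256-fold dose range (nine 2-fold or five 4-fold steps up to the top dose). Adherent lines were fixed and stained with the nucleic acid dye Syto60, suspension lines read with resazurin; signal relative to control wells, capped at 0 and 100%. One two-parameter sigmoid per drug and line, fitted in a mixed model over all curves with the slope shared within a line.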

[2] = compound: COc1cc2c(Oc3ccc(NC(=O)C4(C(=O)Nc5ccc(F)cc5)CC4)cc3F)ccnc2cc1OCCCN1CCOCC1 [XL-880]; conditions: top dose 5.12 µM; top dose inferred
Description: as §1

[3] = compound: CCC(=O)N1CCN(c2ccc(-n3c(=O)ccc4cnc5ccc(-c6cnc7ccccc7c6)cc5c43)cc2C(F)(F)F)CC1 [JW-7-52-1]; conditions: top dose 1.2 µM; top dose inferred
Description: as §1

[4] = compound: Oc1ccc2ccccc2c1SSc1c(O)ccc2ccccc12 [IPA-3]; conditions: top dose 32 µM; top dose inferred
Description: as §1

[5] = compound: CN(C)C/C=C/C(=O)Nc1ccc(C(=O)Nc2cccc(Nc3nccc(-c4cccnc4)n3)c2)cc1 [ZG-10]; conditions: top dose 10 µM; top dose inferred
Description: as §1

[6] = compound: CN1CCc2c(c3ccccc3n2Cc2ccc(C(=O)NO)cc2)C1 [Tubastatin A]; conditions: top dose 20 µM
Description: as §1

[7] = compound: CCCC[C@@H](C=O)NC(=O)[C@H](CC(C)C)NC(=O)[C@H](CC(C)C)NC(=O)OCc1ccccc1 [Z-LLNle-CHO]; conditions: top dose 2.56 µM; top dose inferred
Description: as §1

[8] = compound: CO[C@H]1C[C@@H]2CC[C@@H](C)[C@@](O)(O2)C(=O)C(=O)N2CCCC[C@H]2C(=O)O[C@H]([C@H](C)C[C@@H]2CC[C@@H](O)[C@H](OC)C2)CC(=O)[C@H](C)/C=C(\C)[C@@H](O)[C@@H](OC)C(=O)[C@H](C)C[C@H](C)/C=C/C=C/C=C/1C [Rapamycin]; conditions: top dose 0.1 µM; top dose inferred
Description: as §1

[9] = compound: O=C(NOCC1CC1)c1ccc(F)c(F)c1Nc1ccc(I)cc1Cl [CI-1040]; conditions: top dose 10 µM; top dose inferred
Description: as §1

Cell Line | AUC [1] | IC50 [1] [nM] | AUC [2] | IC50 [2] [nM] | AUC [3] | IC50 [3] [nM] | AUC [4] | IC50 [4] [nM] | AUC [5] | IC50 [5] [nM] | AUC [6] | IC50 [6] [nM] | AUC [7] | IC50 [7] [nM] | AUC [8] | IC50 [8] [nM] | AUC [9] | IC50 [9] [nM]
LNCaP-Clone-FGC (prostate, adherent) | 0.975 | > 30000 | 0.87 | > 5120 | 0.935 | > 1200 | 0.878 | > 32000 | 0.839 | 8270 | 0.891 | > 20000 | 0.952 | > 2560 | 0.881 | > 100 |  | 
NH-12 (neuroblastoma, adherent) |  |  | 0.591 | 586 | 0.942 | > 1200 | 0.63 | 4770 | 0.885 | > 10000 | 0.838 | 16000 | 0.983 | > 2560 | 0.969 | > 100 | 0.774 | 4400
Hs-445 (Hodgkin lymphoma, suspension) | 0.972 | > 30000 | 0.734 | 1400 | 0.871 | 984 | 0.687 | 6370 | 0.778 | 3750 | 0.962 | > 20000 | 0.822 | 1360 | 0.95 | > 100 |  | 
LB771-HNC (head and neck, adherent) | 0.98 | > 30000 | 0.653 | 953 | 0.499 | 74.4 | 0.982 | > 32000 | 0.766 | 4610 | 0.968 | > 20000 | 0.78 | 1340 | 0.904 | > 100 |  | 
NCI-H1355 (lung adenocarcinoma, adherent) | 0.975 | > 30000 | 0.869 | > 5120 | 0.268 | 12 | 0.871 | > 32000 | 0.715 | 3380 | 0.977 | > 20000 | 0.754 | 1230 | 0.163 | < 0.391 |  | 
SCC-15 (head and neck, adherent) | 0.948 | > 30000 | 0.605 | 687 | 0.868 | > 1200 | 0.823 | 28200 | 0.8 | 6890 | 0.951 | > 20000 | 0.857 | > 2560 | 0.979 | > 100 |  | 
IST-MES1 (mesothelioma, adherent) | 0.957 | > 30000 | 0.68 | 1020 | 0.678 | 237 | 0.904 | > 32000 | 0.74 | 3040 | 0.972 | > 20000 | 0.854 | 2050 | 0.983 | > 100 |  | 
D-247MG (glioma, adherent) | 0.977 | > 30000 | 0.449 | 221 | 0.879 | > 1200 |  |  | 0.772 | 5340 | 0.953 | > 20000 | 0.953 | > 2560 | 0.979 | > 100 | 0.859 | > 10000
RS4-11 (leukaemia, suspension) | 0.975 | > 30000 | 0.316 | 103 | 0.458 | 58.3 | 0.85 | 21100 | 0.611 | 1220 | 0.759 | 6430 | 0.666 | 444 | 0.972 | > 100 |  | 
SW872 (soft tissue, adherent) | 0.987 | > 30000 | 0.836 | 2940 | 0.246 | 15.2 | 0.736 | 8690 | 0.939 | > 10000 | 0.965 | > 20000 | 0.736 | 698 | 0.165 | 0.683 |  | 
NB6 (neuroblastoma, adherent) |  |  | 0.576 | 541 | 0.459 | 56.5 | 0.673 | 6840 | 0.905 | > 10000 | 0.934 | > 20000 | 0.916 | > 2560 | 0.957 | > 100 | 0.962 | > 10000
NB7 (neuroblastoma, adherent) | 0.98 | > 30000 | 0.502 | 325 | 0.983 | > 1200 | 0.816 | 18800 | 0.706 | 2460 | 0.971 | > 20000 | 0.949 | > 2560 | 0.944 | > 100 |  | 
NEC8 (testis, adherent) |  |  | 0.524 | 367 | 0.804 | 496 | 0.985 | > 32000 | 0.988 | > 10000 | 0.839 | 10800 | 0.982 | > 2560 | 0.987 | > 100 | 0.835 | 5230
SKM-1 (haematopoietic neoplasm, suspension) | 0.947 | > 30000 |  |  | 0.973 | > 1200 |  |  | 0.62 | 1390 |  |  | 0.961 | > 2560 | 0.967 | > 100 |  | 
COLO-829 (melanoma, adherent) | 0.971 | > 30000 | 0.708 | 1660 | 0.664 | 267 | 0.978 | > 32000 | 0.839 | > 10000 | 0.962 | > 20000 | 0.852 | > 2560 | 0.978 | > 100 |  | 
LOXIMVI (melanoma, semi-adherent) | 0.934 | > 30000 | 0.68 | 955 | 0.623 | 157 | 0.887 | 29100 | 0.663 | 1670 | 0.984 | > 20000 | 0.853 | 1680 | 0.96 | > 100 |  | 
